# Test results: patent US20240158515A1, “ANTI-FGFR3 ANTIBODIES AND ANTIGEN-BINDING FRAGMENTS AND METHODS OF USE THEREOF” (Regeneron Pharmaceuticals, Inc., priority 2022, published 2024)
# B1: H4H30045P: anti-FGFR3 antibody; HCVR/LCVR SEQ ID NOs: 179 & 187; HC/LC 195 & 197 (antibody)
# heavy: QVQLVQSGAEVKKPGASVKVSCKTSGYRFVNYGFSWVRQAPGQGLEWMGWISPYNGNTNYIQNLQDRITMTTDTSTNTAYMELTNLRSDDTAVYYCATLTGVHFDYWGQGTLVTVSSASTKGPSVFPLAPCSRSTSESTAALGCLVKDYFPEPVTVSWNSGALTSGVHTFPAVLQSSGLYSLSSVVTVPSSSLGTKTYTCNVDHKPSNTKVDKRV[sequence of human IgG4 Fc with S228P (EU numbers) not given]
# light: AIQMTQSPSSLSASVGDRVTITCRASQGIRNDLGWYQQKPGKAPNLLIFETSRLQSGVPSRFSGSGSGTDFTLTINSLQPEDFATYYCLQDYNYPWTFGQGTKVEIKRTVAAPSVFIFPPSDEQLKSGTASVVCLLNNFYPREAKVQWKVDNALQSGNSQESVTEQDSKDSTYSLSSTLTLSKADYEKHKVYACEVTHQGLSSPVTKSFNRGEC
# notes: anti-FGFR3 antibody; HC/LC 195 & 197
# B2: H4H30061P: anti-FGFR3 antibody; HCVR/LCVR SEQ ID NOs: 199 & 207; HC/LC 215 & 217 (antibody)
# heavy: EVQLVESGGGLAQPGGSLKLSCEASGFTFSDSAMHWVRQASGKGLEWVGRIRSKANSYATGYAASVKGRFTISRDDSKNMAFLEMNSLKTEDTAVYYCLRQTYGDPWGQGTLVTVSSASTKGPSVFPLAPCSRSTSESTAALGCLVKDYFPEPVTVSWNSGALTSGVHTFPAVLQSSGLYSLSSVVTVPSSSLGTKTYTCNVDHKPSNTKVDKRV[sequence of human IgG4 Fc with S228P (EU numbers) not given]
# light: DVVMTQSPLSLSVTLGQPASISCRSSLSLVYSDGNNYLNWFQQRPGQSPRRLLYKVFNRDSGVPDRFSGSGSGTDFTLKISRVEAEDVGVYYCMQGTHWPWTFGQGTKVEIKRTVAAPSVFIFPPSDEQLKSGTASVVCLLNNFYPREAKVQWKVDNALQSGNSQESVTEQDSKDSTYSLSSTLTLSKADYEKHKVYACEVTHQGLSSPVTKSFNRGEC
# notes: anti-FGFR3 antibody; HC/LC 215 & 217
# B3: H4H30071P: anti-FGFR3 antibody; HCVR/LCVR SEQ ID NOs: 42 & 50; HC/LC 58 & 60 (antibody)
# heavy: QVQLQQSGPGLVKPSQTLSLTCAISGDSVSRNSAAWNWIRQSPSSGLEWLGRTYYRSKWFYDYAISVKSRITVNPDTSKNQFSLHLNSVTPEDTAVYYCARGYGGYEDYFDYWGQGTLVTVSSASTKGPSVFPLAPCSRSTSESTAALGCLVKDYFPEPVTVSWNSGALTSGVHTFPAVLQSSGLYSLSSVVTVPSSSLGTKTYTCNVDHKPSNTKVDKRV[sequence of human IgG4 Fc with S228P (EU numbers) not given]
# light: DIQMTQSPSSVSASVGDRVTITCRASQGISSWLAWYQQKPGKAPKLLIYGASSLQSGVPSRFSGSGSGTDFTLTISSLQPEDFATYFCQQGSSFPYTFGQGTKLEIKRTVAAPSVFIFPPSDEQLKSGTASVVCLLNNFYPREAKVQWKVDNALQSGNSQESVTEQDSKDSTYSLSSTLTLSKADYEKHKVYACEVTHQGLSSPVTKSFNRGEC
# notes: anti-FGFR3 antibody; HC/LC 58 & 60
# B4: H4H30076P: anti-FGFR3 antibody; HCVR/LCVR SEQ ID NOs: 122 & 130; HC/LC 136 & 138 (antibody)
# heavy: EVQLVESGGGLVQPGGSLRLSCAASGFTVSSNYMSWVRQAPGKGLEWVSIIYSGGHTYYSDSVKGRFTISRHNSKNTLYLQMNSLRGGDTAVYYCARGYTSGWYGFDFWGQGTLVTVSSASTKGPSVFPLAPCSRSTSESTAALGCLVKDYFPEPVTVSWNSGALTSGVHTFPAVLQSSGLYSLSSVVTVPSSSLGTKTYTCNVDHKPSNTKVDKRV[sequence of human IgG4 Fc with S228P (EU numbers) not given]
# light: B3 light with S31T, G50A, S65T, F87Y, G91T, S92N, Y96W, L104V
# notes: anti-FGFR3 antibody; HC/LC 136 & 138
# Target: T1, human FGFR3b (hFGFR3b.mmH, REGN3152) (Homo sapiens, UniProt P22607)
# T1 construct: REGN3152 (human FGFR3b expressed with a C-terminal myc-myc-hexahistidine tag)
# Test: Biacore SPR binding kinetics, monomeric human FGFR3b to captured antibodies
# Details: 25° C.
# Procedure: (§1) Biacore binding kinetics of anti-FGFR3 antibodies, in an antibody capture format, to monomeric human FGFR3b, cynomolgus FGFR3b, murine FGFR3b, human FGFR3c, and dimeric human FGFR3b ecto domain recombinant proteins at 25° C. were analyzed.
# (§2) Equilibrium dissociation constants (KD values) for human FGFR3b expressed with a C-terminal myc-myc-hexahistidine tag (hFGFR3b.mmH, REGN3152) or cynomolgus FGFR3b expressed with a C-terminal myc-myc-hexahistidine tag (mfFGFR3b.mmH, REGN3521), or murine FGFR3b expressed with a C-terminal myc-myc-hexahistidine tag (mFGFR3b.mmH, REGN3215) or human FGFR3c expressed with a C-terminal myc-myc-hexahistidine tag (hFGFR3c.mmH, REGN3155) or human FGFR3b expressed with an C-terminal murine Fc tag (hFGFR3b.mFc, REGN3153) binding to purified anti-FGFR3 antibodies were determined using a real-time surface plasmon resonance biosensor technology using a Biacore 3000 or Biacore 4000 instrument. The CM5 Biacore sensor surface was derivatized by amine coupling with a monoclonal mouse anti-human Fc monoclonal antibody (REGN2567). All Biacore binding studies were performed in a buffer composed of 0.01M HEPES pH 7.4, 0.15 M NaCl, 3 mM EDTA, 0.05% v/v Surfactant P20 (HBS-EP running buffer). Different concentrations of monomeric proteins prepared in HBS-EP running buffer (ranging from 90 nM to 3.33 nM in 3-fold serial dilutions) or dimeric protein (hFGFR3b.mFc, REGN3153) prepared in HBS-EP running buffer (ranging from 30 to 10 nM in 3-fold serial dilution) were injected over the captured anti-FGFR3 antibodies at a flow rate of 30 μL/minute. Antibody-reagent association was monitored for 5 minutes while dissociation in HBS-EP running buffer was monitored for 10 minutes. At the end of each cycle, the anti-FGFR3 antibody capture surface was regenerated using a 10 sec injection of 20 mM phosphoric acid. All binding kinetics experiments were performed at 25° C.
# (§3) The specific SPR-Biacore sensorgrams were obtained by a double referencing procedure. The double referencing was performed by first subtracting the signal of each injection over a reference surface (anti-hFc) from the signal over the experimental surface (anti-hFc-captured anti-FGFR3 antibodies) thereby removing contributions from refractive index changes. In addition, running buffer injections were performed to allow subtraction of the signal changes resulting from the dissociation of captured antibodies from the coupled anti-hFc surface. Kinetic association (ka) and dissociation (kd) rate constants were determined by fitting the real-time sensorgrams to a 1:1 binding model using Scrubber v2.0c curve fitting software. Binding dissociation equilibrium constants (KD) and dissociative half-lives (t½) were calculated from the kinetic rate constants as: […]
# T1 sequence (P22607 with tags, fused parts or gaps isoform P22607-2): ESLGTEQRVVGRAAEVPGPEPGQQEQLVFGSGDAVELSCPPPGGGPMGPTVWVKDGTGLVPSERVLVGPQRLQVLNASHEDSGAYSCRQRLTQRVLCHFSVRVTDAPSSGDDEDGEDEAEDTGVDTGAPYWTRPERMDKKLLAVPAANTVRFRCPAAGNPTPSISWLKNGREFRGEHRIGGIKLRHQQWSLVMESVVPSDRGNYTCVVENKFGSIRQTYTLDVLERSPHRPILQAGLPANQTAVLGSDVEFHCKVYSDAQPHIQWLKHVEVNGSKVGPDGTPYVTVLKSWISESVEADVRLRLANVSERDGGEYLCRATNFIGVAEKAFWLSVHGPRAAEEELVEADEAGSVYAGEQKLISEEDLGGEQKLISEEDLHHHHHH
Molecule,ka [M⁻¹ s⁻¹],kd [s⁻¹]
B1,385000,0.00624
B2,173000,8.74e-05
B3,216000,2.96e-05
B4,236000,4.39e-05

# Target: T2, dimeric human FGFR3b (hFGFR3b.mFc, REGN3153) (Homo sapiens, UniProt P22607)
# T2 construct: REGN3153 (human FGFR3b expressed with a C-terminal murine Fc tag)
# Test: Biacore SPR binding kinetics, dimeric human FGFR3b to captured antibodies
# Details: 25° C.
# Procedure: as §1, §2, §3
# T2 sequence (P22607 with tags, fused parts or gaps isoform P22607-2): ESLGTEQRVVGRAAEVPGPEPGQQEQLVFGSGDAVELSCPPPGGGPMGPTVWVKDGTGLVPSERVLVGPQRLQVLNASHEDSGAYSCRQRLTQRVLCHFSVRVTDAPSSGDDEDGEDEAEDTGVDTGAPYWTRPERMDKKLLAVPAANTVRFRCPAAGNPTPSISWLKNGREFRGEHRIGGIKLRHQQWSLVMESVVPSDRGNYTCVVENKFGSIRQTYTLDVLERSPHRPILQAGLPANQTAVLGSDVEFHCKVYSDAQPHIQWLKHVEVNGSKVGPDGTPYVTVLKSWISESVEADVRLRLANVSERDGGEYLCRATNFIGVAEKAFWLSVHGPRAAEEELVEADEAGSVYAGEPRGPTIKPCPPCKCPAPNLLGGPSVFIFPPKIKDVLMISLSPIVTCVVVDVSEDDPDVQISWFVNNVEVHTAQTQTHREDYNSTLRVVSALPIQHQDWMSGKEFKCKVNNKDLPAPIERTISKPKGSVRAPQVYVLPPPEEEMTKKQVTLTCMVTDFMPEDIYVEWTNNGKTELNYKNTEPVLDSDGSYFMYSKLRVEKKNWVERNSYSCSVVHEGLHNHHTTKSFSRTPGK
Molecule,ka [M⁻¹ s⁻¹],kd [s⁻¹]
B1,277000,0.000161
B2,231000,≤1e-05
B3,322000,≤1e-05
B4,407000,≤1e-05

# Target: T3, human FGFR3c (hFGFR3c.mmH, REGN3155) (Homo sapiens, UniProt P22607)
# T3 construct: REGN3155 (human FGFR3c expressed with a C-terminal myc-myc-hexahistidine tag)
# Test: Biacore SPR binding kinetics, monomeric human FGFR3c to captured antibodies
# Details: 25° C.
# Procedure: as §1, §2, §3
# T3 sequence (P22607 with tags, fused parts or gaps): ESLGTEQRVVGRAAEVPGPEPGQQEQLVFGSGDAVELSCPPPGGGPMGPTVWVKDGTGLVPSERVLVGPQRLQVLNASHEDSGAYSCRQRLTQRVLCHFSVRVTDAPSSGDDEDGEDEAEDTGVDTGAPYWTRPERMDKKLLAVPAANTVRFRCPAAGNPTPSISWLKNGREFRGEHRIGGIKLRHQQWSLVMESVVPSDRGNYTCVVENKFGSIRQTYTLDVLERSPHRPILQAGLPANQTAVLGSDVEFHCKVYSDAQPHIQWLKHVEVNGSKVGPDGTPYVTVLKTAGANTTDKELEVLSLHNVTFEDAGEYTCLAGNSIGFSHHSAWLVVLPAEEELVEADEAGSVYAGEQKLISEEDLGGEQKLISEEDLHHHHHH
Molecule,ka [M⁻¹ s⁻¹],kd [s⁻¹]
B1,381000,0.00746
B2,151000,7.92e-05

# Test system: cynomolgus FGFR3b (mfFGFR3b.mmH, REGN3521)
# Test: Biacore SPR binding kinetics, monomeric cynomolgus FGFR3b to captured antibodies
# Details: 25° C.
# Procedure: as §1, §2, §3
Molecule,ka [M⁻¹ s⁻¹],kd [s⁻¹]
B1,429000,0.00882
B2,–,9.83e-05
B3,180000,2.22e-05
B4,200000,3.3e-05

# Target: T4, murine FGFR3b (mFGFR3b.mmH, REGN3215) (Mus musculus, UniProt Q61851)
# T4 construct: REGN3215 (murine FGFR3b expressed with a C-terminal myc-myc-hexahistidine tag)
# Test: Biacore SPR binding kinetics, monomeric murine FGFR3b to captured antibodies
# Details: 25° C.
# Procedure: as §1, §2, §3
# T4 sequence (Q61851 with tags, fused parts or gaps isoform Q61851-2): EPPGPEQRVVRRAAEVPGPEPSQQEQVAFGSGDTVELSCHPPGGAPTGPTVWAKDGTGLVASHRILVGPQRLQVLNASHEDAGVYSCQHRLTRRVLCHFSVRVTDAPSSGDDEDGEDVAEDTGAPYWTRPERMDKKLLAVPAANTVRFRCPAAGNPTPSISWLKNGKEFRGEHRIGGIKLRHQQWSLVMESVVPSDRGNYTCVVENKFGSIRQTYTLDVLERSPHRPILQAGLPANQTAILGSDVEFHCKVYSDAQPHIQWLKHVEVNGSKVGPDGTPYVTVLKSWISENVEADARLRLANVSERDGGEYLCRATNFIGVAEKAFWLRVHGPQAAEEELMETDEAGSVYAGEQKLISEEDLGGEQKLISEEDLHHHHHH
Molecule,ka [M⁻¹ s⁻¹],kd [s⁻¹]
B3,220000,0.00169
B4,256000,3.61e-05

# Substitutions are numbered along the chain they refer to.
